In the BET-seq Pho4 binding data (Le et al. 2018):
The list shows a part of the results. These are noisy estimates, calculated here from bound and input reads.

What follows are sequences tested against T1, Pho4 (S. cerevisiae) (UniProt P07270) (assay: relative binding free energy (BET-seq); higher = weaker binding). Conditions: reference: library average.
T1 sequence: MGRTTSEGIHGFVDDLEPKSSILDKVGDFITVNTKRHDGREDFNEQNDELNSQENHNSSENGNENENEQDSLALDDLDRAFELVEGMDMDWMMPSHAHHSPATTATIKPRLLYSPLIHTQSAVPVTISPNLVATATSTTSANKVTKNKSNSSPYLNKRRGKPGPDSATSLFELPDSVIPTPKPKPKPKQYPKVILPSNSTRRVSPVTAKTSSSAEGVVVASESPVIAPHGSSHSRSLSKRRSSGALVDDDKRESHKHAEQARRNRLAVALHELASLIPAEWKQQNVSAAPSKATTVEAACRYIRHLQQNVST

Sequence | relative binding free energy [kcal/mol]
CTCGTCACGTGGGGAT | 0.02
AGAAACACGTGTTTGT | -0.05
TTCGCCACGTGTTGTG | -0.02
AGTCGCACGTGAGTTT | 0.25
TGGGACACGTGTTCGA | 0
CTTTGCACGTGGCGGG | -0.09
ATGTACACGTGGGTCG | -0.13
TACTTCACGTGGGTCG | 0.27
AGAGGCACGTGGTGCC | -0.02
TAATTCACGTGTAGCA | 0.31
TTAGTCACGTGGCCGG | -0.08
GCGGGCACGTGAGAGC | 0.28
TGTGGCACGTGGCATG | -0.14
TAGGACACGTGTTGTG | 0.02
GTCCGCACGTGTGGGT | 0.02
AGTGACACGTGTAGGA | 0.03
GAGGTCACGTGTGCTA | 0.18
ATATCCACGTGGGTTA | -0.08
TTTCTCACGTGAGTTC | 0.44
GGATGCACGTGGAAGG | -0.07
TGTGACACGTGGTGTG | 0
TGAGCCACGTGTTAGG | -0.02
TTCCGCACGTGAGGGT | 0
TGTGGCACGTGCGAGT | -0.12
TCGAGCACGTGAGAGG | 0.24

Sequence | relative binding free energy [kcal/mol]
GCATTCACGTGAGGAT | 0.48
TAGTACACGTGCAGGA | 0.18
ATGTCCACGTGAGGGT | 0.15
ATAGACACGTGGTGCG | -0.15
AGATACACGTGGTATT | -0.02
TAGGTCACGTGGTCAG | 0.05
AATTGCACGTGAGTGT | 0.22
TTCCTCACGTGTTTGT | 0.17
GGGTGCACGTGCGGCT | -0.03
AGATGCACGTGACGTT | 0.11
ATTACCACGTGATGGT | 0.18
GTTCTCACGTGGTCGG | 0.23
TGAGACACGTGTTGAG | 0
TGATACACGTGTTGTT | 0.06
AGTTGCACGTGCGCGC | -0.06
GAGGTCACGTGCTGGT | 0.19
GGTATCACGTGAAGTA | 0.46
AGGAACACGTGAGGTT | 0.42
AGGATCACGTGCTTTG | 0.13
TCGGTCACGTGGAAGT | 0.33
GTGTTCACGTGTTCGC | 0.3
TACTTCACGTGGCATG | 0.36
TGAAGCACGTGAGTGC | 0.17
TGTGGCACGTGGTGAG | -0.08
TACGGCACGTGTTGAT | 0.06

Sequence | relative binding free energy [kcal/mol]
TAAATCACGTGTGATA | 0.29
GATGACACGTGGGGGC | -0.12
CTGCGCACGTGTTGGA | -0.13
CGGGGCACGTGAAGTA | 0.19
TACGACACGTGGTGTT | -0.07
GTCTGCACGTGAGGGT | 0.28
TTACTCACGTGTGTAT | 0.12
ATGATCACGTGTGTGG | 0.04
AGGTTCACGTGGGAGC | 0.21
GGTGGCACGTGTGATT | 0.06
AGAGACACGTGGGTGG | -0.09
AAAATCACGTGGTAGT | 0.05
GTTATCACGTGAGGGC | 0.22
TTTTGCACGTGAAATT | 0.3
GGAGACACGTGCGGGG | -0.04
GTTGTCACGTGGCGGA | 0.15
ACGGGCACGTGGTCGG | -0.14
GGAGGCACGTGATGTG | -0.04
TGGCGCACGTGTTGGT | 0.03
GTGAGCACGTGGTAAG | -0.09
GGTTACACGTGCGGAT | 0.22
GGGTTCACGTGTATAG | 0.27
ATTATCACGTGCTTTA | 0.07
AGACGCACGTGTCGGT | 0.11
GAGGCCACGTGTTGTG | -0.16

Sequence | relative binding free energy [kcal/mol]
AGTAGCACGTGTGAGT | -0.11
TCGGGCACGTGTTTCG | 0.08
TAATTCACGTGGTTAT | 0.2
ATGTACACGTGCTAGG | 0.02
GTGTGCACGTGATGAT | 0.15
TTTACCACGTGTATGT | 0.05
AAAGTCACGTGGGCTT | 0.02
AGGGCCACGTGTTATT | 0.02
TCATGCACGTGATTTA | 0.14
CATAGCACGTGGGAGG | -0.33
TTGTACACGTGATACT | 0.19
ACGGCCACGTGATGGG | 0.07
GTAGTCACGTGGTGAC | 0.07
AAGAACACGTGTTTGG | 0.11
CGGGTCACGTGAGGGC | 0.22
AGATTCACGTGGTGCT | 0.17
CGGTGCACGTGAGCGG | 0.15
CAGATCACGTGATAGG | 0.39
GGTAGCACGTGGATAA | 0.04
GAATTCACGTGGTGGC | 0.37
TAGTTCACGTGAGGGA | 0.37
TATGACACGTGAATGT | 0.27
GGGGGCACGTGTCATA | -0.12
TGATCCACGTGGGTCG | 0.13
CAGGGCACGTGCTGGT | -0.22

Sequence | relative binding free energy [kcal/mol]
TTTCGCACGTGATAGT | 0.12
TGGAGCACGTGCTGAT | -0.1
CGGGGCACGTGATTGT | -0.06
TTCGGCACGTGTTATT | -0.12
GATTACACGTGCGTTG | 0.21
GGGGACACGTGTAGCT | -0.05
ATATGCACGTGAAGAT | 0.2
CGGGGCACGTGACAGT | 0.08
TGCGACACGTGTGGCG | 0.03
ATAATCACGTGTTCGG | 0.04
ATGCTCACGTGGTGGG | 0.21
GGATACACGTGGGTCT | -0.07
TCTAGCACGTGATGTG | -0.08
GATTACACGTGAGTGA | 0.25
AGGTACACGTGCGGAG | 0.09
AGGTGCACGTGAAGTT | 0.12
TCAGGCACGTGTAGGT | -0.19
AAATGCACGTGTGGGC | -0.18
TGTGCCACGTGGAGGG | -0.1
ATTGACACGTGAAGGG | 0.24
AGTGTCACGTGCAGGG | 0
GTTCGCACGTGGGAAG | -0.06
GTTTGCACGTGTGCAT | 0.08
CGTGACACGTGGGGCG | -0.1
TATAACACGTGTGTAT | -0.06

Sequence | relative binding free energy [kcal/mol]
GAGTGCACGTGCGGCG | -0.04
TAAGACACGTGTGCTT | 0.09
TTGGTCACGTGACTTT | 0.2
AGTTTCACGTGTTCGG | 0.24
TTGGGCACGTGATTAT | 0.11
GAGTACACGTGTGTGT | 0.06
GAATGCACGTGGTTAT | -0.12
TGTTGCACGTGGTGGG | -0.02
TCTATCACGTGTTTGG | 0.19
GTAAGCACGTGAGTGC | 0.29
TTGGTCACGTGGGTCG | -0.04
AATGGCACGTGTTTCT | -0.03
TTATGCACGTGGGCTT | -0.14
TTATTCACGTGATTTC | 0.23
TTTTCCACGTGATATG | 0.1
GTATGCACGTGATTGC | 0.11
TTGCGCACGTGGGCAG | -0.23
TTTCGCACGTGTGTGG | -0.05
GGGGACACGTGTTGGG | 0.16
TCGATCACGTGTGATG | 0.19
TGAGTCACGTGGGTGG | 0
